The list shows a part of the results.
Tests used:
HSkMC = human skeletal muscle cells; experiment: cytotoxicity call (relative viability < 0.9); details: 10 µM
HepG2 = experiment: cytotoxicity call (relative viability < 0.9); details: 10 µM
S. aureus RN4220 = experiment: growth inhibition call (relative growth <= 0.2); details: 50 µM

Row | Structure (SMILES) | cytotoxicity call (HSkMC) | cytotoxicity call (HepG2) | growth inhibition call (S. aureus RN4220)
1 | COC1CC(OC2C(C)OC(OC3C(C)=CCC4CC(CC5(C=CC(C)C(C6CCCCC6)O5)O4)OC(=O)C4C=C(C)C(O)C5OCC(=CC=CC3C)C45O)CC2OC)OC(C)C1O (configuration not stated) | inactive | inactive | inactive
2 | Cc1noc(C)c1S(=O)(=O)Nc1cccc2c1O[C@@H](CN(C)Cc1ccc(C(=O)O)cc1)[C@@H](C)CN([C@H](C)CO)C2=O | inactive | inactive | inactive
3 | COCC#Cc1ccc([C@@H]2[C@@H](CO)N3C(=O)CN(C(=O)c4ccncc4)C[C@H]23)cc1 | inactive | inactive | inactive
4 | Cc1ccc(S(=O)(=O)N(C)C[C@H]2OCCCC[C@H](C)Oc3ccc(NS(=O)(=O)c4ccc(Cl)cc4)cc3C(=O)N([C@H](C)CO)C[C@@H]2C)cc1 | inactive | inactive | inactive
5 | C[C@@H]1CN([C@H](C)CO)C(=O)c2cc(C#CC(C)(C)O)cnc2O[C@@H]1CN(C)C(=O)CN(C)C | inactive | inactive | inactive
6 | C[C@H](CO)N1C[C@H](C)[C@H](CN(C)Cc2ccc(Oc3ccccc3)cc2)Oc2c(NC(=O)c3nc4ccccc4s3)cccc2C1=O | inactive | inactive | inactive
7 | COc1ccc(NC(=O)N(C)C[C@@H]2OCCCC[C@@H](C)Oc3ccc(NC(=O)Nc4ccc(F)cc4)cc3C(=O)N([C@@H](C)CO)C[C@@H]2C)cc1 | inactive | inactive | inactive
8 | CC1CCC2C(C)C(O)OC3OC4(C)CCC1C32OO4 (configuration not stated) | inactive | active | inactive
9 | CC(C)C#Cc1ccc2c(c1)O[C@H](CN(C)S(=O)(=O)c1cn(C)cn1)[C@@H](C)CN([C@@H](C)CO)S2(=O)=O | inactive | inactive | inactive
10 | C[C@@H]1CN([C@H](C)CO)C(=O)Cc2cc(NC(=O)C3CCCCC3)ccc2O[C@H]1CN(C)Cc1ccc(Oc2ccccc2)cc1 | inactive | inactive | inactive
11 | C[C@H](CO)N1C[C@H](C)[C@H](CN(C)S(=O)(=O)c2cn(C)cn2)Oc2c(NS(=O)(=O)c3ccccc3)cccc2C1=O | inactive | inactive | inactive
12 | C[C@@H]1CCCCO[C@@H](CN(C)C(=O)Nc2ccc(F)cc2)[C@H](C)CN([C@@H](C)CO)C(=O)c2cc(NC(=O)CCC(F)(F)F)ccc2O1 | inactive | inactive | inactive
13 | COc1cccc(C(=O)Nc2ccc3c(c2)C(=O)N(C)[C@H]2CC[C@@H](CC(=O)NCCCN4CCOCC4)O[C@H]2CO3)c1 | inactive | inactive | inactive
14 | COC(=O)c1c2oc(c1C(=O)OC)C(=O)N[C@H](Cc1ccccc1)Cn1cc(nn1)CNC(=O)[C@H](Cc1ccccc1)NC(=O)N[C@@H](CO)CC2 | inactive | inactive | inactive
15 | C[C@@H]1CN([C@@H](C)CO)C(=O)c2cc(NS(=O)(=O)c3ccc(F)cc3)ccc2O[C@@H](C)CCCCO[C@@H]1CN(C)Cc1ccccc1 | inactive | inactive | inactive
16 | C[C@H](CO)N1C[C@H](C)[C@H](CN(C)C(=O)Cc2ccncc2)Oc2cc(C3=CCCC3)ccc2S1(=O)=O | inactive | inactive | inactive
17 | C[C@H]1CCCCO[C@H](CN(C)C(=O)Nc2ccc(F)cc2)[C@@H](C)CN([C@@H](C)CO)C(=O)c2cc(NC(=O)Nc3ccc4c(c3)OCO4)ccc2O1 | inactive | inactive | inactive
18 | O=C(NCCCN1CCOCC1)[C@@H]1[C@@H](CO)[C@@H]2Cn3c(cccc3=O)[C@H]1N2C(=O)C1CCCCC1 | inactive | inactive | inactive
19 | O=C(CS)NCCCCCCNC(=O)[C@@H]1C[C@@H]2C(=O)NCC(=O)N2[C@@H]1c1ccc(O)cc1 | inactive | inactive | inactive
20 | O=C(C[C@@H]1CC[C@@H]2[C@H](COC[C@H](O)CN2Cc2cccc(C(F)(F)F)c2)O1)NCCc1ccncc1 | inactive | inactive | inactive
21 | CC(C)(C)[S@@+]([O-])N1Cc2cc(C(=O)NCc3ccc4c(c3)OCO4)nc(-c3ccc(-c4ccc(C#N)cc4)cc3)c2[C@H]1CCO | inactive | inactive | inactive
22 | C[C@@H]1CN([C@@H](C)CO)S(=O)(=O)c2ccc(Br)cc2O[C@H]1CN(C)C(=O)c1ccccc1F | inactive | inactive | inactive
23 | COc1ccc(CN(C)C[C@H]2OCCCC[C@@H](C)Oc3ccc(NC(=O)Nc4ccc(C(F)(F)F)cc4)cc3C(=O)N([C@H](C)CO)C[C@H]2C)cc1 | active | active | inactive
24 | COCCCN(C[C@]1(O)CC[C@H]2C3=CC=C4C[C@@H](O)CC[C@]4(C)[C@@H]3CC[C@@]21C)C(=O)O[C@H]1C[C@@H](C)CC[C@@H]1C(C)C | inactive | inactive | inactive
25 | C[C@@H]1CCCCO[C@H](CN(C)C(=O)Nc2ccc(C(F)(F)F)cc2)[C@@H](C)CN([C@H](C)CO)C(=O)c2cc(NC(=O)C3CCCCC3)ccc2O1 | inactive | inactive | inactive

Row | Structure (SMILES) | cytotoxicity call (HSkMC) | cytotoxicity call (HepG2) | growth inhibition call (S. aureus RN4220)
26 | CNC(=O)C(=O)NC[C@H]1OCCN1S(=O)(=O)c1ccccc1 | inactive | inactive | inactive
27 | N[C@@H]1CC[C@H](CCn2cc(C3CC3)nn2)O[C@@H]1CO | inactive | inactive | inactive
28 | Cc1nc(-c2ccccc2)oc1CN | inactive | inactive | inactive
29 | C[C@@H]1CN([C@H](C)CO)C(=O)Cc2cc(NC(=O)Nc3ccc4c(c3)OCO4)ccc2O[C@H]1CN(C)S(=O)(=O)c1cn(C)cn1 | inactive | inactive | inactive
30 | COc1ccc(S(=O)(=O)Nc2ccc3c(c2)C(=O)N([C@@H](C)CO)C[C@@H](C)[C@@H](CN(C)C(=O)Nc2ccc4c(c2)OCO4)OCCCC[C@@H](C)O3)cc1 | inactive | active | inactive
31 | CN1C(=O)Cc2ccccc2C1=O | inactive | inactive | inactive
32 | C/C=C/c1cccc(-c2nc(C(=O)NCc3ccc(OC)cc3)cc3c2[C@@H](CCO)N([S@](=O)C(C)(C)C)C3)c1 | inactive | inactive | inactive
33 | C=C1CCC2C(CC2(C)C)C(=O)CCC1O (configuration not stated) | inactive | inactive | inactive
34 | C[C@@H]1CN([C@H](C)CO)C(=O)c2cc(NS(=O)(=O)c3ccccc3)ccc2O[C@@H]1CN(C)S(=O)(=O)c1cccs1 | inactive | inactive | inactive
35 | N=C(N)NCCNS(=O)(=O)c1cccc2cnccc12 | inactive | active | inactive
36 | C[C@H]1CN([C@@H](C)CO)C(=O)Cc2cc(NS(=O)(=O)c3ccc(F)cc3)ccc2O[C@H]1CN(C)S(C)(=O)=O | inactive | inactive | inactive
37 | CC(C)CC#Cc1ccc2c(c1)O[C@@H](CN(C)C(=O)Cc1cccnc1)[C@H](C)CN([C@@H](C)CO)S2(=O)=O | inactive | inactive | inactive
38 | O=C(C[C@H]1CC[C@H]2[C@@H](COC[C@@H](O)CN2S(=O)(=O)c2ccccc2F)O1)NCc1ccccc1F | inactive | inactive | inactive
39 | C[C@@H]1CN([C@@H](C)CO)C(=O)c2cc(NC(=O)Nc3ccc(C(F)(F)F)cc3)ccc2O[C@@H](C)CCCCO[C@H]1CN(C)Cc1ccc(C(F)(F)F)cc1 | inactive | active | inactive
40 | C[C@H](O)C#Cc1ccc2c(c1)O[C@@H](CN(C)C)[C@@H](C)CN([C@H](C)CO)S2(=O)=O | inactive | inactive | inactive
41 | C[C@H]1CN([C@@H](C)CO)C(=O)Cc2cc(NS(=O)(=O)c3ccc(Cl)cc3)ccc2O[C@@H]1CN(C)C(=O)Nc1cccc2ccccc12 | inactive | inactive | inactive
42 | O=C(C[C@H]1CC[C@H]2[C@@H](COC[C@@H](O)CN2S(=O)(=O)c2ccccc2)O1)NCCN1CCCCC1 | inactive | inactive | inactive
43 | CC(C)NC(=O)Nc1ccc2c(c1)C(=O)N([C@@H](C)CO)C[C@@H](C)[C@@H](CN(C)C(=O)Nc1ccc3c(c1)OCO3)O2 | inactive | inactive | inactive
44 | O=C(C[C@H]1CC[C@H]2[C@@H](COC[C@H](O)CN2S(=O)(=O)c2ccccc2)O1)NCCN1CCCC1 | inactive | inactive | inactive
45 | Cc1c(N)cncc1C(=O)O | inactive | inactive | inactive
46 | C[C@@H]1CN([C@H](C)CO)C(=O)c2cc(NS(=O)(=O)c3ccc(Cl)cc3)ccc2O[C@@H](C)CCCCO[C@@H]1CN(C)C(=O)Cc1ccccc1 | inactive | active | inactive
47 | Cn1ccnc1 | inactive | inactive | inactive
48 | COCC#Cc1cnc2c(c1)C(=O)N([C@@H](C)CO)C[C@H](C)[C@@H](CN(C)C(=O)c1ccc3c(c1)OCO3)O2 | inactive | inactive | inactive
49 | C[C@@H]1CCCCO[C@H](CN(C)S(C)(=O)=O)[C@@H](C)CN([C@H](C)CO)C(=O)c2cc(NS(=O)(=O)c3cccs3)ccc2O1 | inactive | inactive | inactive
